From the supplement of paper PMC8728848
The list shows a part of the results.

Experiments:
Experiment in all cases: glycan array binding signal (z-score within array); higher = stronger binding
Details in all cases: glycan notation: IUPAC condensed, linker removed
[1] = target: Neu5Ac(a2-6)Gal(b1-4)GlcNAc(b1-2)Man(a1-3)[GlcNAc(b1-4)][Neu5Ac(a2-6)Gal(b1-4)GlcNAc(b1-2)Man(a1-6)]Man(b1-4)GlcNAc(b1-4)GlcNAc
Procedure, shortened: (§1)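 The binding signal is a Z-score computed within each array and averaged over linkers. Arrays of the same protein sequence at different concentrations or buffers were also averaged together. Data originate from 3228 arrays in the Consortium for Functional Glycomics database, kept only where the protein sequence was available.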

[2] = target: Neu5Ac(a2-6)Gal(b1-4)GlcNAc(b1-2)Man(a1-3)[Man(a1-6)]Man(b1-4)GlcNAc(b1-4)GlcNAc
Procedure, shortened: as §1

[3] = target: Neu5Ac(a2-6)Gal(b1-4)GlcNAc(b1-2)Man(a1-3)[Neu5Ac(a2-3)Gal(b1-4)GlcNAc(b1-2)Man(a1-6)]Man(b1-4)GlcNAc(b1-4)GlcNAc
Procedure, shortened: as §1

[4] = target: Neu5Ac(a2-6)Gal(b1-4)GlcNAc(b1-2)Man(a1-3)[Neu5Ac(a2-6)Gal(b1-4)GlcNAc(b1-2)Man(a1-6)]Man(b1-4)GlcNAc(b1-4)GlcNAc
Procedure, shortened: as §1

[5] = target: Neu5Ac(a2-6)Gal(b1-4)GlcNAc(b1-2)Man(a1-3)[Neu5Ac(a2-6)Gal(b1-4)GlcNAc(b1-2)Man(a1-6)]Man(b1-4)GlcNAc(b1-4)[Fuc(a1-6)]GlcNAc
Procedure, shortened: as §1

[6] = target: Neu5Ac(a2-6)Gal(b1-4)GlcNAc(b1-2)Man(a1-6)Man(b1-4)GlcNAc(b1-4)GlcNAc
Procedure, shortened: as §1

[7] = target: Neu5Ac(a2-6)Gal(b1-4)GlcNAc(b1-2)Man(a1-6)[Gal(b1-4)GlcNAc(b1-2)Man(a1-3)]Man(b1-4)GlcNAc(b1-4)GlcNAc
Procedure, shortened: as §1

[8] = target: Neu5Ac(a2-6)Gal(b1-4)GlcNAc(b1-2)Man(a1-6)[GlcNAc(b1-2)Man(a1-3)]Man(b1-4)GlcNAc(b1-4)GlcNAc
Procedure, shortened: as §1

[9] = target: Neu5Ac(a2-6)Gal(b1-4)GlcNAc(b1-2)Man(a1-6)[Man(a1-3)]Man(b1-4)GlcNAc(b1-4)GlcNAc
Procedure, shortened: as §1

[10] = target: Neu5Ac(a2-6)Gal(b1-4)GlcNAc(b1-2)[Neu5Ac(a2-6)Gal(b1-4)GlcNAc(b1-4)]Man(a1-3)[GlcNAc(b1-4)][Neu5Ac(a2-6)Gal(b1-4)GlcNAc(b1-2)[Neu5Ac(a2-6)Gal(b1-4)GlcNAc(b1-6)]Man(a1-6)]Man(b1-4)GlcNAc(b1-4)GlcNAc
Procedure, shortened: as §1

[11] = target: Neu5Ac(a2-6)Gal(b1-4)GlcNAc(b1-2)[Neu5Ac(a2-6)Gal(b1-4)GlcNAc(b1-4)]Man(a1-3)[GlcNAc(b1-4)][Neu5Ac(a2-6)Gal(b1-4)GlcNAc(b1-4)Man(a1-6)]Man(b1-4)GlcNAc(b1-4)GlcNAc
Procedure, shortened: as §1

[12] = target: Neu5Ac(a2-6)Gal(b1-4)GlcNAc(b1-2)[Neu5Ac(a2-6)Gal(b1-4)GlcNAc(b1-6)]Man(a1-6)[Neu5Ac(a2-6)Gal(b1-4)GlcNAc(b1-2)Man(a1-3)][GlcNAc(b1-4)]Man(b1-4)GlcNAc(b1-4)GlcNAc
Procedure, shortened: as §1

[13] = target: Neu5Ac(a2-6)Gal(b1-4)GlcNAc(b1-3)Gal(b1-3)GlcNAc
Procedure, shortened: as §1

[14] = target: Neu5Ac(a2-6)Gal(b1-4)GlcNAc(b1-3)Gal(b1-4)GlcNAc
Procedure, shortened: as §1

[15] = target: Neu5Ac(a2-6)Gal(b1-4)GlcNAc(b1-3)Gal(b1-4)GlcNAc(b1-2)Man(a1-3)[Neu5Ac(a2-6)Gal(b1-4)GlcNAc(b1-3)Gal(b1-4)GlcNAc(b1-2)Man(a1-6)]GalNAc
Procedure, shortened: as §1

[16] = target: Neu5Ac(a2-6)Gal(b1-4)GlcNAc(b1-3)Gal(b1-4)GlcNAc(b1-3)Gal(b1-4)GlcNAc
Procedure, shortened: as §1

[17] = target: Neu5Ac(a2-6)Gal(b1-4)GlcNAc(b1-3)Gal(b1-4)GlcNAc(b1-3)Gal(b1-4)GlcNAc(b1-2)Man(a1-3)[Neu5Ac(a2-6)Gal(b1-4)GlcNAc(b1-3)Gal(b1-4)GlcNAc(b1-3)Gal(b1-4)GlcNAc(b1-2)Man(a1-6)]GalNAc
Procedure, shortened: as §1

[18] = target: Neu5Ac(a2-6)Gal(b1-4)GlcNAc(b1-3)Gal(b1-4)GlcNAc(b1-3)GalNAc
Procedure, shortened: as §1

[19] = target: Neu5Ac(a2-6)Gal(b1-4)GlcNAc(b1-3)Gal(b1-4)GlcNAc(b1-3)[Neu5Ac(a2-6)Gal(b1-4)GlcNAc(b1-3)Gal(b1-4)GlcNAc(b1-6)]GalNAc
Procedure, shortened: as §1

[20] = target: Neu5Ac(a2-6)Gal(b1-4)GlcNAc(b1-3)Gal(b1-4)GlcNAc(b1-6)[Gal(b1-3)]GalNAc
Procedure, shortened: as §1

[21] = target: Neu5Ac(a2-6)Gal(b1-4)GlcNAc(b1-3)Gal(b1-4)[Fuc(a1-3)]GlcNAc(b1-3)Gal(b1-4)[Fuc(a1-3)]GlcNAc
Procedure, shortened: as §1

[22] = target: Neu5Ac(a2-6)Gal(b1-4)GlcNAc(b1-3)GalNAc
Procedure, shortened: as §1

[23] = target: Neu5Ac(a2-6)Gal(b1-4)GlcNAc(b1-3)[Neu5Ac(a2-6)Gal(b1-4)GlcNAc(b1-6)]GalNAc
Procedure, shortened: as §1

[24] = target: Neu5Ac(a2-6)Gal(b1-4)GlcNAc(b1-6)GalNAc
Procedure, shortened: as §1

[25] = target: Neu5Ac(a2-6)Gal(b1-4)GlcNAc(b1-6)[Gal(b1-3)GlcNAc(b1-3)]Gal(b1-4)Glc
Procedure, shortened: as §1

[26] = target: Neu5Ac(a2-6)Gal(b1-4)GlcNAc(b1-6)[Gal(b1-3)]GalNAc
Procedure, shortened: as §1

[27] = target: Neu5Ac(a2-6)Gal(b1-4)GlcNAc6S
Procedure, shortened: as §1

[28] = target: Neu5Ac(a2-6)GalNAc
Procedure, shortened: as §1

[29] = target: Neu5Ac(a2-6)GalNAc(b1-4)GlcNAc
Procedure, shortened: as §1

[30] = target: Neu5Ac(a2-6)GalNAc(b1-4)GlcNAc6S
Procedure, shortened: as §1

[31] = target: Neu5Ac(a2-6)GlcNAc(b1-4)GlcNAc
Procedure, shortened: as §1

B1: PhoSpL (Pholiota squarrosa) (peptide)
chain: APVPVTKLVCDGDTYKCTAYLDFGDGRWVAQWDTNVFHTG
B1 was tested, and the “glycan array binding signal (z-score)” value [1] was -0.368, the “glycan array binding signal (z-score)” value [2] was -0.244 and the “glycan array binding signal (z-score)” value [3] was -0.405. For the same binder, the “glycan array binding signal (z-score)” value [4] was -0.25, the “glycan array binding signal (z-score)” value [5] was 4.01 and the “glycan array binding signal (z-score)” value [6] was -0.048. The “glycan array binding signal (z-score)” value [7] was -0.355, the “glycan array binding signal (z-score)” value [8] was -0.639 and the “glycan array binding signal (z-score)” value [9] was -0.232. For the same binder, the “glycan array binding signal (z-score)” value [10] was -0.591, the “glycan array binding signal (z-score)” value [11] was -0.382 and the “glycan array binding signal (z-score)” value [12] was -0.203. The “glycan array binding signal (z-score)” value [13] was -0.422, the “glycan array binding signal (z-score)” value [14] was 0.045 and the “glycan array binding signal (z-score)” value [15] was 0.095. The “glycan array binding signal (z-score)” value [16] was 0.037, the “glycan array binding signal (z-score)” value [17] was 0.668 and the “glycan array binding signal (z-score)” value [18] was -0.287. The “glycan array binding signal (z-score)” value [19] was 0.487, the “glycan array binding signal (z-score)” value [20] was -0.257 and the “glycan array binding signal (z-score)” value [21] was -0.067. For the same binder, the “glycan array binding signal (z-score)” value [22] was -0.044, the “glycan array binding signal (z-score)” value [23] was 0.236 and the “glycan array binding signal (z-score)” value [24] was 0.412. The “glycan array binding signal (z-score)” value [25] was -0.255, the “glycan array binding signal (z-score)” value [26] was -0.451 and the “glycan array binding signal (z-score)” value [27] was 0.008. The “glycan array binding signal (z-score)” value [28] was -0.215, the “glycan array binding signal (z-score)” value [29] was 0.041 and the “glycan array binding signal (z-score)” value [30] was -0.296. For the same binder, the “glycan array binding signal (z-score)” value [31] was -0.342.
